Reference: patent US20220041702A1 (Innovent, published 2022)

Legend:
[1] = target: T1, human PD-L1 expressed on the surface of cells (CHO cells overexpressing human PD-L1) (human, UniProt Q9NZQ7); assay: FACS on CHO-PD-L1 cells, PE anti-human Fc
T1 construct: whole, on cells; also called CHO-PD-L1 cells; CHO cells overexpressing PD-L1

[2] = target: T2, human OX40-his (human, UniProt P43489 29-216); assay: ForteBio Octet BLI, antibody on AHC tip, human OX40-His 100 nM in solution, monovalent
T2 construct: Bought soluble protein
T2 sequence (looked up): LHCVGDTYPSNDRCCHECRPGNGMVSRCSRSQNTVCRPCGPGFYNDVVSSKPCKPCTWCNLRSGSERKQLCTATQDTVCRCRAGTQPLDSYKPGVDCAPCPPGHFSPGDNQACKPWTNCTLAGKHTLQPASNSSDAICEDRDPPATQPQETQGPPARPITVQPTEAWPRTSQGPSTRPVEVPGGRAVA
Procedure: (§1) A ForteBio affinity assay was performed according to the method reported in the literature (Estep, P, et al., High throughput solution Based measurement of antibody-antigen affinity and epitope binning MAbs, 2013, 5(2): p. 270-278). Briefly, the AHC sensor (Pall, Catalog No.: 1506091) was immersed in a SD buffer (PBS 1×, BSA 0.1%, Tween 20 0.05%) and equilibrated at room temperature, half an hour before the experiment. […] The anti-human IgG Fc biosensor AHC was immersed in each well containing the antibody solution, and immersed at room temperature for 600 s to load the samples. The sensor was then washed in the SD buffer until it returned to the baseline, and then immersed in a well containing 100 μL of the antigen solution to monitor the binding of the antibody to the antigen. The sensor was then transferred to a well containing 100 μL of the SD buffer to monitor the antibody dissociation. The rotation speed was 400 rpm and the temperature was 30° C. The background-corrected association and dissociation curves were fitted by the Octet analysis software (ForteBio) to generate the binding rate constant (kₒₙ) and dissociation rate constant (kdis), which are then used to calculate the equilibrium dissociation constant (KD).

[3] = target: T3, human PD-L1-his (human, UniProt Q9NZQ7 fragment); assay: ForteBio Octet BLI, antibody on AHC tip, human PD-L1-His 100 nM in solution, monovalent
T3 construct: Bought soluble protein
Procedure: as §1

[4] = target: T1, human PD-L1 expressed on the surface of …; assay: FACS cell-bridging assay: antibody titrated on stained CHO-PD-L1 cells, washed, then stained CHO-OX40 cells added; readout is % double positive (cross-linked) cells, which needs binding to both PD-L1 and OX40
[5] = target: T4, human OX40 expressed on the surface of cells (CHO cells overexpressing human OX40) (human, UniProt P43489 29-277); assay: FACS on CHO-OX40 cells, PE anti-human Fc
T4 construct: whole, on cells; also called CHO-OX40 cells; CHO cells overexpressing OX40
T4 sequence (looked up): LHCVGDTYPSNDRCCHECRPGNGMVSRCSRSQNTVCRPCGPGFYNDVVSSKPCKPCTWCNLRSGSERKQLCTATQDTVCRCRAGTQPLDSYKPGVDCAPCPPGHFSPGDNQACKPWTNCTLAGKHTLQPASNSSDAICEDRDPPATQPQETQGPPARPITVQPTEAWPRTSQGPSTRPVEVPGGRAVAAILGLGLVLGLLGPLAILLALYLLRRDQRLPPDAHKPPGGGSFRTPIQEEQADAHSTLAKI

[6] = target: T5, human GITR-His (human, UniProt Q9Y5U5 26-161); assay: ForteBio Octet BLI, antibody on AHC tip, human GITR-His 50 nM in solution, monovalent
T5 construct: Bought soluble protein; also called GIR-H5228-1MG
T5 sequence (looked up): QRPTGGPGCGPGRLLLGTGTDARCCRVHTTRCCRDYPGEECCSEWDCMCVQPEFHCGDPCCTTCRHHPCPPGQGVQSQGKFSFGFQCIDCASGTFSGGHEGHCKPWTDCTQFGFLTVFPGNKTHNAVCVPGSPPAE
Procedure: as §1

[7] = target: T6, human VEGF165 (human, UniProt P15692-4 27-191); assay: ForteBio Octet BLI, antibody on AHC tip, human VEGF165 50 nM in solution
T6 construct: Bought protein
T6 sequence (looked up): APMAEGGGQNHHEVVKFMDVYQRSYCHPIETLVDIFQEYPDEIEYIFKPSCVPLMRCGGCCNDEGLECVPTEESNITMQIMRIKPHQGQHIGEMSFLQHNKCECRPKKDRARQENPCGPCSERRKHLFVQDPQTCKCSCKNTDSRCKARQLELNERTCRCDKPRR
Procedure: as §1

[8] = target: T7, GITR expressed on cell surface (CHO cells overexpressing GITR) (Homo sapiens (Human), UniProt Q9Y5U5 26-241); assay: FACS on CHO cells overexpressing GITR
T7 construct: also called GITR on cell surface
T7 sequence: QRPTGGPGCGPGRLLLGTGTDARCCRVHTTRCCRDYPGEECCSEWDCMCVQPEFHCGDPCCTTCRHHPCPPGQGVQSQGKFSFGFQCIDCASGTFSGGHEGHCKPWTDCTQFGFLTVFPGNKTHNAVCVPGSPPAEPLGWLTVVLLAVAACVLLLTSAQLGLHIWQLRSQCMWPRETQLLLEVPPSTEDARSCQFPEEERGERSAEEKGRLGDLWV

Binder	EC50 [1] [nM]	Kd [2] [nM]	koff [2] [s⁻¹]	kon [2] [M⁻¹ s⁻¹]	Kd [3] [nM]	koff [3] [s⁻¹]	kon [3] [M⁻¹ s⁻¹]	EC50 (read off the curve) [4] [nM]	EC50 [5] [nM]	Kd [6] [nM]	koff [6] [s⁻¹]	kon [6] [M⁻¹ s⁻¹]	Kd [7] [nM]	koff [7] [s⁻¹]	kon [7] [M⁻¹ s⁻¹]	EC50 [8] [nM]
anti-OX40/PD-L1 bispecific antibody Bi-119-112LC (bispecific antibody, the VHH stands between CH1 and Fc) light: DIQMTQSPSSLSASVGDRVTITCQASQDISNYLNWYQQKPGKAPKLLIYDASNLETGVPSRFSGSGSGTDFTFTISSLQPEDIATYYCQQSDHYPTFGGGTKVEIKRTVAAPSVFIFPPSDEQLKSGTASVVCLLNNFYPREAKVQWKVDNALQSGNSQESVTEQDSKDSTYSLSSTLTLSKADYEKHKVYACEVTHQGLSSPVTKSFNRGEC heavy: QVQLVESGGGVVQPGRSLRLSCAASGFTFSSYGMHWVRQAPGKGLEWVAVISYDGSNKYYADSVKGRFTISRDNSKNTLYLQMNSLRAEDTAVYYCARGRPWYSETGTSAFDIWGQGTMVTVSSASTKGPSVFPLAPSSKSTSGGTAALGCLVKDYFPEPVTVSWNSGALTSGVHTFPAVLQSSGLYSLSSVVTVPSSSLGTQTYICNVNHKPSNTKVDKKAEPKSCDKQVQLQESGGGLVQPGGSLRLSCAASAYTISRNSMGWFRQAPGKGLEGVAAIESDGSTSYSDSVKGRFTISLDNSKNTLYLEMNSLRAEDTAVYYCAAPKVGLGPRTALGHLAFMTLPALNYWGQGTLVTVSS[… human IgG1 Fc …]	2.65	60.7	0.0133	220000	13.1	0.00423	322000	~1	3.19	–	–	–	–	–	–	–
anti-VEGF/GITR bispecific antibody Bi-2-50 (bispecific antibody) light: DIQMTQSPSSLSASVGDRVTITCSASQDISNYLNWYQQKPGKAPKVLIYFTSSLHSGVPSRFSGSGSGTDFTLTISSLQPEDFATYYCQQYSTVPWTFGQGTKVEIKRTVAAPSVFIFPPSDEQLKSGTASVVCLLNNFYPREAKVQWKVDNALQSGNSQESVTEQDSKDSTYSLSSTLTLSKADYEKHKVYACEVTHQGLSSPVTKSFNRGEC heavy: EVQLVESGGGLVQPGGSLRLSCAASGYTFTNYGMNWVRQAPGKGLEWVGWINTYTGEPTYAADFKRRFTFSLDTSKSTAYLQMNSLRAEDTAVYYCAKYPHYYGSSHWYFDVWGQGTLVTVSSASTKGPSVFPLAPSSKSTSGGTAALGCLVKDYFPEPVTVSWNSGALTSGVHTFPAVLQSSGLYSLSSVVTVPSSSLGTQTYICNVNHKPSNTKVDKKVEPKSCDKGGGGSGGGGSQVQLQESGGGLVQPGGSLRLSCAASGFAFGSSHMSWVRRAPGKGLEWVSTIHSGGGFGDYANSVQGRFTISRDVAKNTLYLQMNSLKPEDTAIYYCALATDWRKPPGQGTQVTVSS[… human IgG1 Fc …]	–	–	–	–	–	–	–	–	–	2.39	0.000629	263000	1.08	0.000135	124000	2.99
anti-VEGF/GITR bispecific antibody Bi-2-51 (bispecific antibody) light: DIQMTQSPSSLSASVGDRVTITCSASQDISNYLNWYQQKPGKAPKVLIYFTSSLHSGVPSRFSGSGSGTDFTLTISSLQPEDFATYYCQQYSTVPWTFGQGTKVEIKRTVAAPSVFIFPPSDEQLKSGTASVVCLLNNFYPREAKVQWKVDNALQSGNSQESVTEQDSKDSTYSLSSTLTLSKADYEKHKVYACEVTHQGLSSPVTKSFNRGEC heavy: EVQLVESGGGLVQPGGSLRLSCAASGYTFTNYGMNWVRQAPGKGLEWVGWINTYTGEPTYAADFKRRFTFSLDTSKSTAYLQMNSLRAEDTAVYYCAKYPHYYGSSHWYFDVWGQGTLVTVSSASTKGPSVFPLAPSSKSTSGGTAALGCLVKDYFPEPVTVSWNSGALTSGVHTFPAVLQSSGLYSLSSVVTVPSSSLGTQTYICNVNHKPSNTKVDKKVEPKSCDKQVQLQESGGGLVQPGGSLRLSCAASGFAFGSSHMSWVRRAPGKGLEWVSTIHSGGGFGDYANSVQGRFTISRDVAKNTLYLQMNSLKPEDTAIYYCALATDWRKPPGQGTQVTVSS[… human IgG1 Fc …]	–	–	–	–	–	–	–	–	–	2.31	0.000585	254000	0.77	0.000115	149000	3.17
